B1: 2A6 (antibody)
heavy: EVQLVQSGAEVKKPGSSVKVSCKASGGTFSSYAISWVRQAPGQGLEWMGGIIPIFGTANYAQKFQGRVTITADESTSTAYMELSSLRSEDTAVYYCARYFDSSGWYKGGAFDIWGQGTMVTVSSASTKGPSVFPLAPCSRSTSESTAALGCLVKDYFPEPVTVSWNSGALTSGVHTFPAVLQSSGLYSLSSVVTVPSSSLGTKTYTCNVDHKPSNTKVDKRV[human IgG4 Fc with S228P (EU numbers) not spelt out]
light: QSVLTQPSSLSASPGASASLTCTLRSGINVDTYRIHWYQQKPGSPPQYLLRYKSDSDKHQGSGVPSRFSGSKDPSANAGILLISGLQSEDEADYYCAIWYSSTWVFGGGTQLTVLGQPKAAPSVTLFPPSSEELQANKATLVCLISDFYPGAVTVAWKADSSPVKAGVETTTPSKQSNNKYAASSYLSLTPEQWKSHRSYSCQVTHEGSTVEKTVAPTECS
B2: 2C1 (antibody)
heavy: EVQLVQSGAEVKKPGASVKVSCKVSGYTLTELSMHWVRQAPGKGLEWMGGFDPEDGETIYAQKFQGRVTMTEDTSTDTAYMELSSLRSEDTAVYYCARAGPLYTIFGVVIIPDNWFDPWGQGTLVTVSSASTKGPSVFPLAPCSRSTSESTAALGCLVKDYFPEPVTVSWNSGALTSGVHTFPAVLQSSGLYSLSSVVTVPSSSLGTKTYTCNVDHKPSNTKVDKRV[human IgG4 Fc with S228P (EU numbers) not spelt out]
light: ESVLTQPPSVSGAPGQRVTISCTGSSSNIGAGYDVHWYQQLPGTAPKLLIYGNSNRPSGVPDRFSGSKSGTSASLAITGLQAEDEADYYCQSYDSSLSGSGVVFGGGTQLIILGQPKAAPSVTLFPPSSEELQANKATLVCLISDFYPGAVTVAWKADSSPVKAGVETTTPSKQSNNKYAASSYLSLTPEQWKSHRSYSCQVTHEGSTVEKTVAPTECS

Target: human ILT4 haplotype 5 expressed on mouse 3A9 T cells (human), Q8N423
Experiment: cell-based or functional assay

Chain of human ILT4 haplotype 5 expressed on mouse 3A9 T cells (human), Q8N423 (Q8N423 other isoform, or with tags, fused parts or gaps): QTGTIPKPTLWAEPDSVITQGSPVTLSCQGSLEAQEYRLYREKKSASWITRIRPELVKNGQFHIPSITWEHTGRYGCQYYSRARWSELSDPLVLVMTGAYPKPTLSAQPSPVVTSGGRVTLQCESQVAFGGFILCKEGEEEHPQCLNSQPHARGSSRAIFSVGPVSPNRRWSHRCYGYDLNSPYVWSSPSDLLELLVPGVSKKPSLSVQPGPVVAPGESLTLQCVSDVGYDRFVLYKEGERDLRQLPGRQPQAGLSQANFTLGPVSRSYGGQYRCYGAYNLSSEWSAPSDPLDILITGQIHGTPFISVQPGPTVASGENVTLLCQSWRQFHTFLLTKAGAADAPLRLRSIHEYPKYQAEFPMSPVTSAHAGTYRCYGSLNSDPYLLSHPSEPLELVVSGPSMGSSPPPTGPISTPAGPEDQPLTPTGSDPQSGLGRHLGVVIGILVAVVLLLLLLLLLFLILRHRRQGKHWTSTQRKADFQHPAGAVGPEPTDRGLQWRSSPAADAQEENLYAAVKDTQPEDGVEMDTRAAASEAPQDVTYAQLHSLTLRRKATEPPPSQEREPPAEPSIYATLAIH

Binder | EC50 (IL-2 Repression Assay: rescue of IL-2 release from anti-CD3 stimulated ILT4 3A9 T cell transfectants, ELISA)
B1 | 1.2 µg/mL
B2 | 0.24 µg/mL

Reference: patent US20220002403A1
